Laboratory results as given in the RNAGym collection of RNA variant scans (doi:10.7554/elife.90254).
The source gives no read counts; variants with many changes may rest on few reads.

B1: LINE1-mini (parent)
chain: GGCAGAGCUCAACACAGCGUGGCAAAGUGGCUGUGGCUAGACUGCC

Variants of: B1
Experiment: self-cleavage, relative activity (ratio to wild type); higher = more cleavage; in vitro, sequencing; the parent is a self-cleaving ribozyme

| Variant | self-cleavage |
| --- | --- |
| G1U A12G U20G G21C C42G | 0.01 |
| C8U A11U A12G G29C C37U | 0.01 |
| C15G G17U G21C G35C | 0.04 |
| C8A C10G C42U | 0.01 |
| C3A A4U A6C G7U U9A G21U | 0.22 |
| A4G A12C C13A G33C | 0.02 |
| A16C A25U G44C | 0.04 |
| C10A C15A U20A C31U | 0.03 |
| C13A G19U G35U | 0.33 |
| A16C C23U G33A G40A | 0.03 |
| G1A G30U G40U | 0.02 |
| C10A G19A A26U | 0.07 |
| C3G G5U G19U G36U | 0.09 |
| A41U U43G C45U | 0.14 |
| G7C C15A A26U | 0.06 |
| C13A C42U C46U | 0.06 |
| U9A A12U A26U | 0.04 |
| A6C G7A G35U U38A C45A | 0.38 |
| C13U A25G A41U C42U | 0.08 |
| G7A U32C U38A U43C | 0.15 |
| G2U A26C C45G | 0.16 |
| C15A C18G G30U G33U | 0.69 |
| G2C G29C G30A G36A C46G | 0.13 |
| C3G G27A C31A | 0.2 |

| Variant | self-cleavage |
| --- | --- |
| G7C U9A A11G A25U G44C | 0.01 |
| G19C G27U C31A G36U | 0.21 |
| G7A C10A C15G U32G C46U | 0.01 |
| G2U C3A A6U C8U U20A U28G U34A G36C | 0.05 |
| A6U G29A A41U C42A | 0.04 |
| G21C C23U G33A G44C | 0.04 |
| G7A C15G G22C | 0.06 |
| A14G G33C G44C | 0 |
| G1A G5A A16U A26U U43C | 0.09 |
| G1C U9A C15U C18A G22A | 0.05 |
| G1U A11U C18U G21U G27U C37U C45A | 0 |
| C13G A24U G27C C46A | 0.33 |
| C15U C18U U20C G29A | 0.07 |
| C3U A12G G27C G44U | 0.08 |
| G2U A4U C8G G21C G29U G30A | 0.06 |
| U9A G27U G35U | 0.11 |
| G5U G19C C45G | 0.03 |
| A6G C10A A14C G21C | 0.01 |
| C8A C13A C15G | 0.22 |
| G2A G7U C8A U20C A39G | 0.47 |
| C3U A12U U28A | 0.15 |
| G22U A26U U28C C46A | 0.08 |
| C10U C15U C37A | 0.05 |
| U20G G36U C45A | 0.03 |

| Variant | self-cleavage |
| --- | --- |
| C8A C18U A25U A26U G27C G35C | 0.13 |
| G5C C31G U32G | 0 |
| A14C U28C C42A | 0.04 |
| G2A A14C C31A C45G | 0.17 |
| A6G A11C C13A G40U U43C | 0.01 |
| A16U A24G G44C | 0.05 |
| A4G C10A G19U G40A | 0.01 |
| U32A U34A A39U | 0.03 |
| U32G G33C A39U | 0.01 |
| A4G G29U G40A | 0.07 |
| A11C A25C A39C | 0 |
| A11U C37A C45G | 0.01 |
| G7A A16G C31A G33A | 0 |
| A11U C13G G22A C37A | 0.02 |
| G5U G19U G29U U38C | 0.02 |
| G21C G35C A39U | 0.08 |
| G5A G7A U32A C45U | 0.12 |
| C3U A11U C13G G40U | 0.01 |
| G21A C23U U38C | 0.54 |
| G1U G19C U28G C37G U38C C42U | 0.01 |
| C10A G29U G35A U38G | 0.04 |
| C10A A16G G17C C31G | 0.02 |
| A4U G5U U9G U38G | 0.01 |
| C13U A24G C46A | 0 |

| Variant | self-cleavage |
| --- | --- |
| G5A G21U C31A | 0.08 |
| G7C G36C A39C | 0.09 |
| G27U U34A C42A U43C | 0.22 |
| C8U A24C G29U | 0.07 |
| U9A U20C G36C | 0.03 |
| C13G C15A G19A G33C | 0.01 |
| C10A A14C U34G G36A | 0 |
| G1C C10G A11G G35U G36A | 0 |
| C10G C15G C23A G30U | 0 |
| G1U G21A G29C G44U | 0.19 |
| G19U G36A G40U | 0.08 |
| U32G A39U G40C U43C G44C | 0.05 |
| A4G A6U C8U G19A | 0.21 |
| A14G G40C C45G | 0.12 |
| A11C U28G G35U | 0.01 |
| A6G C8U A41C C46A | 0.11 |
| C10G A14C C42G | 0.01 |
| G1A G2C G5U A16C U32A U43A C45A | 0.01 |
| G2U G36C U38G G44C | 0.05 |
| A11C G35A G40A | 0.03 |
| G7C C13A G22U G29U C31G | 0.11 |
| G5U A16G A41G G44C C46G | 0.01 |
| C13G G21C G29A | 0.73 |
| C18U C37A A39U A41C C46A | 0.05 |

| Variant | self-cleavage |
| --- | --- |
| C10A C13A U32G U34C U38C | 0 |
| C8U U9G A12G A16G A24C | 0.03 |
| G5C C8U G21U G33A C37A | 0.02 |
| G2C A6U A11C G17A G29U | 0.01 |
| A4C U9A G21A G36A A39U A41G | 0.02 |
| G7C A25C G40U C45A | 0.02 |
| A14U G17U C23A | 0.01 |
| A16U A26G G27A G36A C42G | 0.02 |
| A4G G19C U34A C45U | 0.04 |
| U9A C13U C18A C31G C37U G40U | 0.01 |
| G2A C18A A24G U43A | 0.09 |
| A12G C23U U34A | 0.02 |
| A12C U28G G40A C42A | 0 |
| G5U U9C G17A | 0.01 |
| A4C U9C C13A C18A | 0.01 |
| C13U G22C C37U | 0.02 |
| A26C G40U C45A | 0.05 |
| G2A G7U C15U A25U C45U | 0.09 |
| G7C C10A G22U A41C | 0 |
| G5C C18A U20C U32C | 0.03 |
| G2C G22A G30A C42U | 0.11 |
| G1U G21U G30A A39G G40U | 0.06 |
| A6U A11G U43A C46A | 0.01 |
| G5C C10G A11U C31U | 0.01 |

| Variant | self-cleavage |
| --- | --- |
| G5U A25U U32C G33U | 0.05 |
| C15U A16G A24G C46G | 0 |
| G2A A6G C13A A26U | 0.08 |
| G2A A11C A24U A41C C45U | 0 |
| C3G G5C G21C G22C C23G G30U | 0.03 |
| G2C C3G C10A U38C | 0.02 |
| A6C U9G U32A C46A | 0.05 |
| C23U C31A U43G | 0 |
| C3A A6G A11G | 0.06 |
| A16U G21A C23A | 0.26 |
| G19U G30A U32C | 0.11 |
| G27A G30U G36C C37U | 0.03 |
| C8U C18A G21A G22C G33A A41U | 0.09 |
| C8G C13U A14C U20A A24G A26U G35C | 0.09 |
| G2A A11U G35U | 0.01 |
| G5U A25C G36A | 0.02 |
| C23U A25G G29A G30A U38C C45G | 0.03 |
| G5U A11U A14U | 0.05 |
| G1C U9C A26C G44C | 0.03 |
| A4C A16G G17U G21C A41C C46A | 0.06 |
| G7C C10U G19C | 0.05 |
| U9C G29U G35U G40C A41C | 0.01 |
| G7A C18U G21U U34C U38A | 0.11 |
| G2A C15A A24G G33U | 0.14 |

| Variant | self-cleavage |
| --- | --- |
| G19A G21U G22A | 0.15 |
| A14U G27A C42A | 0.03 |
| U9A C31A A41G | 0.07 |
| U9G G17A A26C G35A | 0.01 |
| G1U C15U G17A C18G C37U C42G | 0.02 |
| C15A G22C C31A C42U | 0.01 |
| A6G C10U G21U | 0.05 |
| G5U G7A A16C | 0.45 |
| A6C G29C G30C U32A | 0.02 |
| C23U C42G U43C | 0.03 |
| A4G U9G C10U | 0.05 |
| A4C G5C A12U C15A C18A U28C G29C C31G C42U | 0.03 |
| G1C G29U C46U | 0.17 |
| C8G A25C C31A | 0.04 |
| G5U C8U G21A A24U U38G G40U | 0.85 |
| G5A C10G A24C C37A | 0.02 |
| C10A A24U G35A C42A | 0.02 |
| C10A G33A C37A | 0.02 |
| A4C G17C G27A G30U G35U U38A | 0.01 |
| A6G G22A A25C G27A G40A | 0.05 |
| A6U U34G C46U | 0.06 |
| A11C C31G C45A | 0.01 |
| G17U G21C U28C G30A | 0.67 |
